From patent US20230057622A1 (ZENSUN SHANGHAI SCIENCE AND TECHNOLOGY, published 2023)
Where two headings read alike, the source gives them in different places.

B1: NRG-IgG4-Fc fusion polypeptide (Fc fusion)
chain: SHLVKCAEKEKTFCVNGGECFMVKDLSNPSRYLCKCPNEFTGDRCQNYVMASFYKAEELYQGGGGSGGGGSGGGGS[human IgG4 Fc with changes and a few adjoining residues skipped]
B2: recombinant NRG fusion protein with an amino acid sequence of SEQ ID NO: 2 (Fc fusion)
chain: SHLVKCAEKEKTFCVNGGECFMVKDLSNPSRYLCKCPNEFTGDRCQNYVMASFYKAEELYQGGGGSGGGGSGGGGS[human IgG1 Fc skipped]

Legend:
receptor on MCF-7 cells [1] = assay: cell-based or functional assay
receptor on MCF-7 cells [2] = assay: cell-based or functional assay; remark: listed apart in the source

| Binder | EC50 (receptor on MCF-7 cells [1]) [nM] | EC50 (receptor on MCF-7 cells [2]) [nM] |
| --- | --- | --- |
| B1 | 3.66 |  |
| B2 |  | 2.48 |
